According to the supplement of paper PMC10037445:
Whole data set: some 2,900 compounds, median “NF-kB SEAP reporter activity, fold change vs agonist alone” near 0.99, cut for the highest 2% near 2.6. Some of the results follow.

Legend:
RAW-Dual [1] = assay: NF-kB SEAP reporter activity, fold change vs agonist alone; cytotoxicity flag (confluency mask): not cytotoxic; higher = enhanced NF-kB activity
In short: (§1)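 Cytotoxic wells were those whose IncuCyte confluency was below 70% of agonist controls in both mask sets. The cells were RAW-Dual macrophages at 50,000 cells/well in DMEM on 384-well plates, dosed with 50 nL of library stock by pin tool, stimulated with a PRR agonist 1 h later, and kept at 37 °C, 5% CO2 for 20 hours. IRF and NF-κB reporter activity, as fold change over agonist-alone wells, came from supernatant read by QuantiLuc luminescence and QuantiBlue absorbance, respectively.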

RAW-Dual [2] = assay: NF-kB SEAP reporter activity, fold change vs agonist alone; higher = enhanced NF-kB activity; details: library stock concentration (final ~1000-fold dilution): 10 mM
In short: as §1

RAW-Dual [3] = assay: NF-kB SEAP reporter activity, fold change vs agonist alone; cytotoxicity flag (confluency mask): cytotoxic (confluency <70% of control); higher = enhanced NF-kB activity
In short: as §1

[4] = agonist: ODN 1826 (TLR9) 0.5 ug/mL
[5] = agonist: Pam2CSK4 (TLR2/6) 0.1 ug/mL
[6] = agonist: Pam3CSK4 (TLR2/1) 0.1 ug/mL
[7] = cytotoxicity flag (confluency mask): not cytotoxic, agonist: Imiquimod (TLR7) […]
[8] = cytotoxicity flag (confluency mask): not cytotoxic, agonist: MPLA (TLR4) […]
[9] = cytotoxicity flag (confluency mask): cytotoxic (confluency <70% of control), agonist: MPLA (TLR4) […]

## COc1ccc(NC(=O)c2ccc(C(=N)N(C)C)cc2)c(C(=O)Nc2ccc(Cl)cn2)c1.O=C(O)/C=C\C(=O)O (library stock concentration (final ~1000-fold dilution): 10 mM)
RAW-Dual [1]; agonist: LPS (TLR4) 0.1 ug/mL
  NF-kB SEAP reporter activity: 0.955
RAW-Dual [1]; [4]
  NF-kB SEAP reporter activity: 0.994
RAW-Dual [1]; [5]
  NF-kB SEAP reporter activity: 1.1
RAW-Dual [1]; [6]
  NF-kB SEAP reporter activity: 1.06

## CCn1c(=O)c(-c2cc(NC(=O)Nc3ccccc3)c(F)cc2Br)cc2cnc(NC)cc21 (library stock concentration (final ~1000-fold dilution): 10 mM)
RAW-Dual [1]; agonist: LPS (TLR4) 0.1 ug/mL
  NF-kB SEAP reporter activity: 0.404
RAW-Dual [1]; [4]
  NF-kB SEAP reporter activity: 0.212
RAW-Dual [1]; [5]
  NF-kB SEAP reporter activity: 0.0771
RAW-Dual [1]; [6]
  NF-kB SEAP reporter activity: 0.143

## CCn1c(=O)c(-c2cc(NC(=O)Nc3ccccc3)c(F)cc2Br)cc2cnc(NC)cc21
RAW-Dual [2]; [7]
  NF-kB SEAP reporter activity: 0.182
RAW-Dual [2]; [8]
  NF-kB SEAP reporter activity: 0.36

## CN(C)CCCCC(=O)Nc1ccc(NC(=S)NC(=O)c2ccc(C(C)(C)C)cc2)cc1.Cl (library stock concentration (final ~1000-fold dilution): 10 mM)
RAW-Dual [3]; agonist: LPS (TLR4) 0.1 ug/mL
  NF-kB SEAP reporter activity: 2.04
RAW-Dual [3]; [4]
  NF-kB SEAP reporter activity: 0.456
RAW-Dual [3]; [5]
  NF-kB SEAP reporter activity: 0.827
RAW-Dual [3]; [6]
  NF-kB SEAP reporter activity: 0.635

## CN(C)CCCCC(=O)Nc1ccc(NC(=S)NC(=O)c2ccc(C(C)(C)C)cc2)cc1.Cl
RAW-Dual [2]; [9]
  NF-kB SEAP reporter activity: 2.2

## C=CC1(C)CC(OC(=O)CSC(C)(C)CNC(=O)C(N)C(C)C)C2(C)C(C)CCC3(CCC(=O)C32)C(C)C1O.Cl (stereo not drawn)
RAW-Dual [2]; [7]
  NF-kB SEAP reporter activity: 0.86
RAW-Dual [2]; [8]
  NF-kB SEAP reporter activity: 1.25

## C=CC1(C)CC(OC(=O)CSC(C)(C)CNC(=O)C(N)C(C)C)C2(C)C(C)CCC3(CCC(=O)C32)C(C)C1O.Cl (stereo not drawn) (library stock concentration (final ~1000-fold dilution): 10 mM)
RAW-Dual [1]; agonist: LPS (TLR4) 0.1 ug/mL
  NF-kB SEAP reporter activity: 1.22
RAW-Dual [1]; [4]
  NF-kB SEAP reporter activity: 0.971
RAW-Dual [1]; [5]
  NF-kB SEAP reporter activity: 0.669
RAW-Dual [1]; [6]
  NF-kB SEAP reporter activity: 0.845

## COc1ccc(CN(CCN(C)C)c2ccccn2)cc1.O=C(O)/C=C\C(=O)O
RAW-Dual [2]; [7]
  NF-kB SEAP reporter activity: 1.53
RAW-Dual [2]; [8]
  NF-kB SEAP reporter activity: 1.79

## COc1ccc(CN(CCN(C)C)c2ccccn2)cc1.O=C(O)/C=C\C(=O)O (library stock concentration (final ~1000-fold dilution): 10 mM)
RAW-Dual [1]; agonist: LPS (TLR4) 0.1 ug/mL
  NF-kB SEAP reporter activity: 1.2
RAW-Dual [1]; [4]
  NF-kB SEAP reporter activity: 0.899
RAW-Dual [1]; [5]
  NF-kB SEAP reporter activity: 1.24
RAW-Dual [1]; [6]
  NF-kB SEAP reporter activity: 0.92

## Cc1nc(Nc2ncc(C(=O)Nc3c(C)cccc3Cl)s2)cc(N2CCN(CCO)CC2)n1.Cl (library stock concentration (final ~1000-fold dilution): 10 mM)
RAW-Dual [1]; agonist: LPS (TLR4) 0.1 ug/mL
  NF-kB SEAP reporter activity: 0.961
RAW-Dual [1]; [4]
  NF-kB SEAP reporter activity: 0.779
RAW-Dual [1]; [5]
  NF-kB SEAP reporter activity: 0.371
RAW-Dual [1]; [6]
  NF-kB SEAP reporter activity: 0.173

## Cc1nc(Nc2ncc(C(=O)Nc3c(C)cccc3Cl)s2)cc(N2CCN(CCO)CC2)n1.Cl
RAW-Dual [2]; [8]
  NF-kB SEAP reporter activity: 1.14

## Cl.O=C1Cc2cc(CCN3CCN(c4nsc5ccccc45)CC3)c(Cl)cc2N1 (library stock concentration (final ~1000-fold dilution): 10 mM)
RAW-Dual [1]; agonist: LPS (TLR4) 0.1 ug/mL
  NF-kB SEAP reporter activity: 0.912
RAW-Dual [1]; [4]
  NF-kB SEAP reporter activity: 0.338
RAW-Dual [1]; [5]
  NF-kB SEAP reporter activity: 0.746
RAW-Dual [1]; [6]
  NF-kB SEAP reporter activity: 0.865

## Cl.O=C1Cc2cc(CCN3CCN(c4nsc5ccccc45)CC3)c(Cl)cc2N1
RAW-Dual [2]; [7]
  NF-kB SEAP reporter activity: 0.412
RAW-Dual [2]; [8]
  NF-kB SEAP reporter activity: 0.73

## CC1(C)CC[C@]2(C(=O)O)[C@H](O)C[C@]3(C)C(=CC[C@@H]4[C@@]5(C)CC[C@H](O)C(C)(C)[C@@H]5CC[C@]43C)[C@@H]2C1 (library stock concentration (final ~1000-fold dilution): 10 mM)
RAW-Dual [3]; agonist: LPS (TLR4) 0.1 ug/mL
  NF-kB SEAP reporter activity: 0.961
RAW-Dual [3]; [4]
  NF-kB SEAP reporter activity: 0.757
RAW-Dual [3]; [5]
  NF-kB SEAP reporter activity: 0.983
RAW-Dual [3]; [6]
  NF-kB SEAP reporter activity: 0.9

## CC1(C)CC[C@]2(C(=O)O)[C@H](O)C[C@]3(C)C(=CC[C@@H]4[C@@]5(C)CC[C@H](O)C(C)(C)[C@@H]5CC[C@]43C)[C@@H]2C1
RAW-Dual [2]; cytotoxicity flag (confluency mask): cytotoxic (confluency <70% of control), agonist: Imiquimod (TLR7) […]
  NF-kB SEAP reporter activity: 1.09
RAW-Dual [2]; [9]
  NF-kB SEAP reporter activity: 0.979

## COc1ccc(Cc2cnc(N)nc2N)cc1OC
RAW-Dual [2]; [8]
  NF-kB SEAP reporter activity: 1.09

## COc1ccc(Cc2cnc(N)nc2N)cc1OC (library stock concentration (final ~1000-fold dilution): 10 mM)
RAW-Dual [1]; agonist: LPS (TLR4) 0.1 ug/mL
  NF-kB SEAP reporter activity: 1.36
RAW-Dual [1]; [4]
  NF-kB SEAP reporter activity: 1.01
RAW-Dual [1]; [5]
  NF-kB SEAP reporter activity: 0.82
RAW-Dual [1]; [6]
  NF-kB SEAP reporter activity: 0.946

## Nc1ccccc1NC(=O)c1ccc(CNC(=O)OCc2cccnc2)cc1 (library stock concentration (final ~1000-fold dilution): 10 mM)
RAW-Dual [1]; agonist: LPS (TLR4) 0.1 ug/mL
  NF-kB SEAP reporter activity: 1.22
RAW-Dual [1]; [4]
  NF-kB SEAP reporter activity: 1.02
RAW-Dual [1]; [5]
  NF-kB SEAP reporter activity: 1.07
RAW-Dual [1]; [6]
  NF-kB SEAP reporter activity: 1.14

## Nc1ccccc1NC(=O)c1ccc(CNC(=O)OCc2cccnc2)cc1
RAW-Dual [2]; [7]
  NF-kB SEAP reporter activity: 0.921
RAW-Dual [2]; [8]
  NF-kB SEAP reporter activity: 1.06

## NC(=O)Cc1cccc(C(=O)c2ccccc2)c1N
RAW-Dual [2]; [7]
  NF-kB SEAP reporter activity: 0.906
RAW-Dual [2]; [8]
  NF-kB SEAP reporter activity: 1.02

## NC(=O)Cc1cccc(C(=O)c2ccccc2)c1N (library stock concentration (final ~1000-fold dilution): 10 mM)
RAW-Dual [1]; agonist: LPS (TLR4) 0.1 ug/mL
  NF-kB SEAP reporter activity: 1.2
RAW-Dual [1]; [4]
  NF-kB SEAP reporter activity: 1.03
RAW-Dual [1]; [5]
  NF-kB SEAP reporter activity: 1.05
RAW-Dual [1]; [6]
  NF-kB SEAP reporter activity: 1.11

## CC(C)NCC(O)c1ccc(NS(C)(=O)=O)cc1.Cl (stereo not drawn)
RAW-Dual [2]; [7]
  NF-kB SEAP reporter activity: 0.917
RAW-Dual [2]; [8]
  NF-kB SEAP reporter activity: 0.978

## CC(C)NCC(O)c1ccc(NS(C)(=O)=O)cc1.Cl (stereo not drawn) (library stock concentration (final ~1000-fold dilution): 10 mM)
RAW-Dual [1]; agonist: LPS (TLR4) 0.1 ug/mL
  NF-kB SEAP reporter activity: 0.93
RAW-Dual [1]; [4]
  NF-kB SEAP reporter activity: 0.904
RAW-Dual [1]; [5]
  NF-kB SEAP reporter activity: 0.933
RAW-Dual [1]; [6]
  NF-kB SEAP reporter activity: 1.08

## CCCCCCCCC/C(=C\C1=C(C)C(=O)C(OC)=C(OC)C1=O)C(=O)O (library stock concentration (final ~1000-fold dilution): 10 mM)
RAW-Dual [1]; agonist: LPS (TLR4) 0.1 ug/mL
  NF-kB SEAP reporter activity: 1.04
RAW-Dual [1]; [4]
  NF-kB SEAP reporter activity: 0.868
RAW-Dual [1]; [5]
  NF-kB SEAP reporter activity: 1.01
RAW-Dual [1]; [6]
  NF-kB SEAP reporter activity: 0.87

## CCCCCCCCC/C(=C\C1=C(C)C(=O)C(OC)=C(OC)C1=O)C(=O)O
RAW-Dual [2]; [7]
  NF-kB SEAP reporter activity: 0.907
RAW-Dual [2]; [8]
  NF-kB SEAP reporter activity: 0.852
